In all, about 33,000 sequences were measured (“E-score (-0.5 to 0.5)”: median about -0.013, highest 2% from about 0.3 on). This is one part of the list.
target: T1, Msn1 (UniProt P22148); assay: PBM E-score (8-mer binding enrichment) (E-score (-0.5 to 0.5)); higher = stronger / more preferred TF binding; most listed sequences are background and not binding sites; details: protein concentration: 200 nM; construct: GST-full length
T1 sequence: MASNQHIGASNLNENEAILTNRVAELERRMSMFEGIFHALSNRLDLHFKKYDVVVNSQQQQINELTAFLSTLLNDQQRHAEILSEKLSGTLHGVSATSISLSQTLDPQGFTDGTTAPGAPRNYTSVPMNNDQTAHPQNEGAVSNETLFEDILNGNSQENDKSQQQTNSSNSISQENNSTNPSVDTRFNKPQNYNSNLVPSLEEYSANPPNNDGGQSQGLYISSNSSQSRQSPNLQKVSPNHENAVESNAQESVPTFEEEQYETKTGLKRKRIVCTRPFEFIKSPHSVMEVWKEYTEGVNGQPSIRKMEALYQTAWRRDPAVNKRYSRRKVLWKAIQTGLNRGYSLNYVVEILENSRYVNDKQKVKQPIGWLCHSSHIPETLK
How it was run: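 E-scores (a modified Wilcoxon-Mann-Whitney statistic) were assigned by the Universal PBM Analysis Suite to every ungapped eight-base word pooled with its reverse complement. The input came from universal all-10-mer Agilent arrays made double-stranded by primer extension and probed with GST-tagged yeast transcription factors at about 100-200 nM. Fluorescent anti-GST detected bound protein, and masliner normalised the scans.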

Row | Sequence | PBM E-score
1 | CAGATAGC | -0.114
2 | AATCACAT | -0.135
3 | AAGTACTT | 0.1
4 | AGGTCGTC | -0.0558
5 | ACACAGCC | 0.00572
6 | GCTGCGAA | -0.0394
7 | CGACACAA | 0.00596
8 | AGATCACT | 0.185
9 | GGTTCTTA | -0.0476
10 | CAGTTGAG | -0.127
11 | ACACACAT | 0.275
12 | GACTCTCA | -0.0981
13 | GCCTCGGA | -0.0386
14 | GTGCACCA | -0.0769
15 | ACATAAGC | 0.238
16 | ATACTCAG | 0.241
17 | CCATGATA | -0.0239
18 | AGAGACCT | -0.012
19 | GATTCGGA | 0.218
20 | ACGTGTCG | 0.0594
21 | GCTAGGAC | 0.267
22 | TCCCTCAA | -0.0599

Row | Sequence | PBM E-score
23 | GGATATAA | 0.0865
24 | CCTACCCA | -0.139
25 | CATTGGCC | -0.129
26 | ATGGTCGC | -0.0326
27 | CATCTAGA | 0.0226
28 | ACTTTTAG | 0.0248
29 | TGTTAACA | 0.0928
30 | GCGGTCCA | -0.127
31 | GAGGTCAA | -0.0237
32 | ATCCAACC | -0.184
33 | GAAGAGGC | -0.265
34 | AGCGTAGG | -0.267
35 | CGTCCGGC | 0.0711
36 | CCGGTTCA | -0.16
37 | AAACCGGT | -0.0293
38 | AACATCCT | -0.223
39 | GCTGGAGA | -0.218
40 | GATGCCGA | 0.0414
41 | GGCGTGAC | -0.0885
42 | ACACTTGC | -0.0547
43 | GTATAACA | 0.0025
44 | AGACGGCT | -0.208

Row | Sequence | PBM E-score
45 | GCCGGGTA | -0.217
46 | GCTGAGAC | 0.0411
47 | GATGCAAA | -0.127
48 | CGAGCTAA | -0.0305
49 | GCTAATGA | -0.0891
50 | AGGCCTAT | -0.12
51 | CCTTAGAA | 0.117
52 | GTTCACAA | 0.0269
53 | AAATGGTA | 0.112
54 | CTTGATCC | -0.163
55 | AAAATGCC | 0.186
56 | GATAACTA | 0.0365
57 | CTAGCATA | 0.00303
58 | AACCCGTA | -0.2
59 | AAGGAGTC | -0.142
60 | CTGAGCGC | -0.245
61 | ATTGACAC | -0.0107
62 | GCTCGCCC | -0.104
63 | AAATCTGC | 0.0796
64 | ACTGATAC | 0.00933
65 | CGGAAGGA | -0.107
66 | ATGGTTCA | 0.0508

Row | Sequence | PBM E-score
67 | CCGCGGTA | 0.0893
68 | CAACGAGA | 0.134
69 | GCTCTTAC | 0.0935
70 | TGCTCAAA | 0.00204
71 | GAGGGTCA | -0.106
72 | GTACATGA | 0.127
73 | CACCACGC | -0.297
74 | CAACGAGG | -0.0281
75 | CATAAGCC | 0.00303
76 | CTGGCATA | -0.0198
77 | TCTAGTCA | 0.161
78 | CGTATGCA | -0.0705
79 | AAAAGAGT | -0.097
80 | AGAGAGGC | -0.34
81 | CAGCCAGA | -0.187
82 | GAAAGCTC | -0.126
83 | ACCGATTG | 0.0992
84 | TAGACAGA | 0.177
85 | AACATGCT | 0.0212
86 | GTAACGAA | 0.0499

From the supplement of paper PMC3334620
